A number of entries come with more than one value. This list holds those alone.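 The calls were made as follows: active = compounds giving half or more protection of infected cells from virus-caused growth loss, again on retest; inactive = the rest.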 The source may hold further records. The records of an entry are repeated measurements (runs, samples, wells, individuals or studies). A tag in brackets gives the origin of a value. The letters are not those of the source and start again with each entry.
Tested on: CEM cells HIV-1 protection, formazan growth assay
Assay: NCI AIDS Antiviral Assay
Details: for IC50: measured here: growth of uninfected CEM cells
In short: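 Soluble formazan readout of cell growth; CEM cells ± HIV-1; 5 drug concs. ≥50% protection → retest; ≥50% again = moderately active; reproducible 100% = confirmed active.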

| SMILES | IC50 | outcome |
| --- | --- | --- |
| CC(=O)c1c(O)c(C)c(O)c2c1OC1=CC(=O)C(C(C)=O)C(=O)C12C (stereo not given) | > 10.5 µM [sample A] and 11.5 µM [sample B] and > 200 µM [sample C] | – |
| COc1nc(N)c(N=CC(OC(C)=O)C(OC(C)=O)C(COC(C)=O)OC(C)=O)c(=O)n1C (stereo not given) | > 200 µM, 141 µM, 170 µM, 174 µM, 182 µM [separate samples] | – |
| COc1ccc(NC(=S)N=Nc2c(O)[nH]c3ccccc23)cc1 | 4.27 µM [sample A] and 120 µM [sample B] | – |
| NC1=C(Cl)C(=O)c2ccccc2C1=O | 115 µM [sample A] and 11.5 µM [sample B] | – |
| CC1=C/C(=C(\c2cc(C)c(O)c(C(=O)O)c2)c2c(Cl)ccc(S(=O)(=O)O)c2Cl)C=C(C(=O)O)C1=O | – | active [sample A] and inactive [sample B] |

Source: PubChem BioAssay AID179 (DTP/NCI, 2004)
